The list shows a part of the results.
test system: T1, C. trachomatis L2/434/Bu expressing GFP (CTL2-GFP); design: species or system HeLa; C. trachomatis total inclusion area by high-content imaging, normalised to DMSO; settings: total inclusion area; 28.5 h, 10 µM; inhibitor
T1 construct: L2/434/Bu GFP intracellular growth in HeLa cells
How it was run: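 High-content imaging followed the bulk GFP/resorufin measurement: fixed, Hoechst-stained cells were scored for GFP inclusions and host nuclei per well. Total inclusion area and count served as growth proxies, nuclei number as the viability proxy. MIC calculation matched the bulk assay.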

| SMILES | % of control remaining |
| --- | --- |
| O=C(Nc1cccc2c1CCCC2)c1cnc2n(c1=O)CCS2 [CBK287379] | 68.9644 |
| Cc1ccccc1-c1ccc(C(=O)Nc2ccc3c(c2)OCO3)c(N2CCN(C(=O)c3ccco3)CC2)n1 [CBK076196] | 92.5503 |
| COc1ccccc1CN(Cc1cccnc1)C(=O)c1cnc(C)cn1 [CBK306972] | 99.0025 |
| COc1ccc(N2Cc3ccccc3C2=O)cc1OC [CBK113666] | 115.727 |
| Oc1ccc(C2N(O)C3CCCCC3N2O)cc1 (centres unmarked) [CBK261715] | 108.037 |
| O=C(NCc1ccc2occc2c1)C1(c2ccccc2)CCCC1 [CBK149525] | 108.147 |
| Cc1cc2cc(CNc3cc(-c4ccccc4)ccc3O)c(=O)[nH]c2cc1C [CBK286164] | 120.941 |
| COc1ccccc1CC(C)NC(=O)c1ccc2nc(C)[nH]c2c1 (centres unmarked) [CBK283261] | 91.9794 |
| Cc1cccc(-n2c(C3CCCNC3=O)n[nH]c2=S)c1 (centres unmarked) [CBK012842] | 85.9949 |
| Cc1nnc(SCC2=NN(c3nc4ccccc4[nH]3)C(=O)C2)s1 [CBK293979] | 83.5589 |
| O=C(COc1ccc2c(c1)OCO2)NCc1ccccn1 [CBK269983] | 85.8568 |
| O=C1NC2(Nc3ccccc31)C(=O)N(Cc1cccc3ccccc13)c1ccccc12 (centres unmarked) [CBK264954] | 72.716 |
| COc1cc(CNc2ccc3[nH]c(=O)[nH]c3c2)cc(Br)c1OCC(=O)NC(C)(C)C [CBK266596] | 79.7134 |
| Cc1ccc2oc(-c3ccc(C)c(NC(=S)NC(=O)c4ccc([N+](=O)[O-])cc4)c3)nc2c1 [CBK263897] | 100.217 |
| COc1ccc(CN2C(=S)N(CC3CCCCC3)[C@H]3[C@@H]2[C@H]2OC(=O)[C@@H]3C[C@H]2O)cc1 [CBK288936] | 97.2621 |
| CCc1nc2ccc(C(=O)Nc3ccc4c(c3)OCC(=O)N4)cn2c1N(C)CC [CBK145521] | 71.9764 |
| CC(=O)Nc1ccc(-c2ccc(=O)n3c2[C@@H]2C[C@@H](CN(C(=O)C(C)(C)C)C2)C3)cc1 [CBK289199] | 105.02 |
| COCCN(C(=O)c1cc2cc(C)ccc2s1)C1CCS(=O)(=O)C1 (centres unmarked) [CBK304289] | 76.1162 |
| C=CCn1c(Cc2csc(NC(=O)c3ccc(OC)cc3O)n2)n[nH]c1=S [CBK296752] | 110.613 |
| Cc1ccc(N2C(=O)N[C@@H]3CCN(S(=O)(=O)c4ccccc4)[C@@H]3C2=O)cc1 [CBK289285] | 113.354 |
| O=C1CCC(=O)N1CCN1C(=O)C2(CC(=O)N(Cc3ccccc3)C2=O)c2ccccc21 (centres unmarked) [CBK075705] | 124.4 |
| O=S(=O)(O)c1cc(O)c2c(/N=N/c3c(S(=O)(=O)O)cc4cc(S(=O)(=O)O)cc(O)c4c3O)cc(S(=O)(=O)O)cc2c1 [CBK260934] | 83.8827 |
| Cc1ccc(S(=O)(=O)N(C)c2ccnc(N3CCN(C)CC3)n2)cc1 [CBK000671] | 80.3674 |
| Cc1cc(C)c(OCCNC(C)(C)C)c(Cl)c1 [CBK262713C] | 86.0548 |
| COc1ccc(-c2ccc(Nc3cccc(N(C)C)c3)nc2)cc1OC [CBK037606] | 85.4535 |
| CC(C)(C)C(=O)CN1CCC2(CC1)NCCc1c2[nH]c2cc(F)ccc12 [CBK039568] | 105.142 |

| SMILES | % of control remaining |
| --- | --- |
| COc1ccc(S(=O)(=O)N2CC[C@H]3NC(=O)N(c4ccc(C(C)C)cc4)C(=O)[C@H]32)cc1 [CBK289290] | 105.205 |
| COc1ccc(-c2nc3c(c(SCC(=O)O)n2)COC(C)(C)C3)cc1 [CBK286704] | 92.8637 |
| O=C1C[C@@H]2CCN(C(=O)Nc3cccc(C(F)(F)F)c3)C[C@@H]2CCN1CCc1c[nH]cn1 [CBK288786] | 54.1557 |
| CN1CCC[C@H]1C(=O)Nc1ccc2[nH]ccc2c1 [CBK159699] | 99.3675 |
| O=C(CSc1nnc(-c2ccncc2)n1C1CCCCC1)Nc1ncc2c(n1)CC(c1ccccc1)CC2=O (centres unmarked) [CBK266177] | 127.77 |
| O=C(OCc1ccccc1)Oc1cncc(C(=O)O)c1 [CBK262053] | 102.858 |
| O=C(Cc1c[nH]c2ccccc12)N1CCC2(CCCN(CCO)C2)C1 (centres unmarked) [CBK132045] | 106.112 |
| CCN(CC)CCNC(=O)c1ccc(/C=N/O)nc1 [CBK288375] | 80.3417 |
| O=C(Nc1cccc(F)c1)N(CCO)Cc1cccnc1 [CBK304860] | 47.8115 |
| Cc1c(Cl)cccc1NC(=O)c1cnc2sccn2c1=O [CBK246518] | 97.8028 |
| CCCC/C=C/c1cnc(Nc2ccc(N3CCOCC3)cc2)c2nccn12 [CBK091239] | 119.088 |
| O=C(NCc1ccc(OC(F)(F)F)cc1)c1cnoc1-c1ccc(Br)cc1 [CBK154885] | 95.7182 |
| O=C(Nc1ccc(-c2ccc(F)cc2)cc1)c1ccc(N2C(=O)CCC2=O)cc1 [CBK285683] | 79.827 |
| COc1cccc(CNc2nccnc2-c2cccs2)c1OC [CBK036784] | 142.184 |
| COc1ccc(OCCNC(=O)c2ccc(-c3ccc(C(C)=O)s3)nc2N(C)C(C)=O)cc1 [CBK076576] | 101.259 |
| Cc1cccc([C@@H]2CN(Cc3ccccc3)C[C@]23CCCC(=O)N3)n1 [CBK283350] | 88.0052 |
| CC(C)(C)C(=O)NCCCC(=O)Nc1nc2ccc(Oc3ccccc3)cc2s1 [CBK296652] | 73.8551 |
| Cc1ccnc2nc(C(=O)OC(C)C(=O)N3CCCC3)nn12 (centres unmarked) [CBK306089] | 89.77 |
| Cn1nccc1CN1CCCC(Cc2nc3ccccc3[nH]2)C1 (centres unmarked) [CBK281892] | 87.636 |
| CCOC(=O)C1(Cc2cc(-c3cccc(F)c3)no2)CCCNC1 (centres unmarked) [CBK284578] | 63.6305 |
| CCN1c2ccc(-c3cncn3CCCn3ccnc3C)cc2CC1C (centres unmarked) [CBK281924] | 105.438 |
| O=C(CC1(O)C(=O)N(Cc2ccccc2)c2ccccc21)c1cc2ccccc2oc1=O (centres unmarked) [CBK293963] | 113.273 |
| CC1CN(C(=O)/C=C/C(=O)O)c2ccccc2NC1=O (centres unmarked) [CBK286618] | 46.1239 |
| O=C1CC2(C(=O)N1CCC1CCCCC1)C(=O)N(Cc1ccccc1)c1ccc(F)cc12 (centres unmarked) [CBK075175] | 119.35 |
| CN(C(=O)[C@H]1CCCC[C@H]1C(=O)O)C1CCS(=O)(=O)C1 (some centres unmarked) [CBK286782] | 88.3965 |
| Cc1ncsc1CCOc1ccc(C(F)(F)F)cn1 [CBK115790] | 102.792 |

| SMILES | % of control remaining |
| --- | --- |
| Clc1ccc(COc2ccnc(N3CCCN(CC4CC4)CC3)n2)cc1Cl [CBK083963] | 66.5646 |
| CCC(Oc1ccccc1C)C(=O)Nc1ccccc1C(=O)N(C)C (centres unmarked) [CBK270144] | 60.444 |
| O=C(Cc1c[nH]c2ccccc12)N1Cc2ccccc2C1 [CBK200321] | 91.2475 |
| COCCN(C)C(=O)c1cn2cc(-c3cc(C)oc3C)n(C)c(=O)c2n1 [CBK306605] | 82.0917 |
| O=C1CC[C@@H](NCc2ccsc2)[C@H](c2cc(F)cc(F)c2)N1 [CBK282910] | 88.8824 |
| CCN1CCC2(CCC1=O)CN(Cc1noc(CC(C)C)n1)CCN2C (centres unmarked) [CBK306971] | 58.7314 |
| COc1cc(C(C)=O)ccc1OCCCN1CCC(O)(C(=O)c2ccc(F)cc2)CC1 [CBK025271C] | 10.3311 |
| Cc1cc(NC(=O)C2CCN(CC3CCCO3)CC2)no1 (centres unmarked) [CBK305544] | 32.9031 |
| CCNC(=O)N1CC2(CCN(CCc3cccc4ccccc34)CC2)c2ccccc21 [CBK136965] | 72.5499 |
| CCN(CC(O)COc1cc(C)c(Cl)c(C)c1)S(=O)(=O)O (centres unmarked) [CBK026767N] | 79.2706 |
| Cc1cc(O)n2nc(CC(=O)NCCCn3c(C)cccc3=O)nc2n1 [CBK306532] | 80.5053 |
| O=C(c1ccccc1)c1cc[n+](CCC[n+]2ccc(C(=O)c3ccccc3)cc2)cc1 [CBK278270B] | 96.6154 |
| CCn1ncc2c1CCCC2NC1CCN(c2ccccc2)C1=O (centres unmarked) [CBK305144] | 105.795 |
| Cc1[nH]c2cc(C(=O)NCCn3nccc3C)ccc2c1C [CBK283313] | 84.4932 |
| CC(C)N(C(=O)c1ccccc1-c1cnc2cccnn12)C(C)C [CBK306900] | 121.225 |
| CCN(CC)CCOC1CCc2ccccc2CC1 [CBK016730C] | 80.4609 |
| Cc1nc(N)sc1-c1nnc(Nc2ccccc2)s1 [CBK267353] | 109.973 |
| CC1CCN(Cc2ccc(-c3ccc(CNC(=O)c4ccc5c(c4)OC(F)(F)O5)s3)cc2)CC1 [CBK166113] | 60.0509 |
| COc1ccc(/C=C(\C)C(=O)Nc2ccc(N3CCNCC3)c3ccccc23)cc1OC [CBK038913T] | 77.2421 |
| CC1Cc2cc(CC(=O)N(C)CC(F)(F)F)ccc2O1 (centres unmarked) [CBK283067] | 72.8508 |
| Cc1nn(C)c2ncc(S(=O)(=O)NCC(N)c3ccc(F)cc3F)cc12 (centres unmarked) [CBK304303C] | 72.4702 |
| CCn1cc(CN2CCCN(C(=O)c3cc(C)on3)CC2)cn1 [CBK306145] | 54.4304 |
| C=CCOc1ccccc1CNc1nc[nH]n1 [CBK267234] | 97.6974 |
| COc1cc(C=CC(=O)O)cc(S(=O)(=O)Nc2ccccc2C(=O)NCCc2ccccc2)c1OC [CBK297487] | 68.2788 |
| COc1cccc(C(=O)Nc2nn(Cc3ccc(C(F)(F)F)cc3)c3ccccc23)c1 [CBK048273] | 90.1873 |
